In all, about 48,000 compounds went through this assay and about 120 (0.25%) were called active. About 4% were inconclusive and are not listed. Calls come from the whole dose curve; as a rule, active = well fitted activation curve with a large enough effect; inconclusive = small, poorly fitted or top-dose-only effect, or another doubt; inactive = no such curve, though single readings can be large or run the other way. This is one part of the list.

The nature of this assay: Primary qHTS for Identification of Small Molecule Activators of Huntingtin-Antisense Promoter Activity. Note: nearly all actives have a fitted effect of over 55% in size. The note with it: HEK293 HTT-AS promoter firefly luciferase reporter (activity 0% = vehicle and -100% = no light), 24 h; series mostly up to 57.5 µM; activity change, positive = activation: at the top concentration. In outline: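 Quantitative HTS used concentration series of up to 57.5 uM final on HEK293 luciferase reporter cells, 24 h at 37 degrees C. Readout was Dual-Glo firefly luminescence.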
Regarding `CCC(C(=O)Nc1cccc(-c2cn3cccnc3n2)c1)c1ccccc1` (stereo unspecified), the “activity change, positive = activation” value is inactive: -0.949%. Regarding `CCC(Oc1ccccc1F)C(=O)Nc1c(C(=O)c2ccccc2)oc2ccccc12` (stereo unspecified), the “activity change, positive = activation” value was inactive: -12.4%. As to `O=C(Nc1ccc(Cl)cc1)C1CCN(c2nc3ccccc3n3cccc23)CC1`, the “activity change, positive = activation” value was inactive: -21.6%. Then `CC(C)(C)OC(=O)N1CCC(c2c(C(=O)NCc3ccc4c(c3)OCO4)cnn2-c2ccc(F)cc2F)CC1`, with inactive: -25.1%. With `COc1ccc(CNC(=O)c2ccc3c(c2)N(Cc2ccccc2)C(=O)c2ccccc2S3(=O)=O)cc1`, the “activity change, positive = activation” value was inactive: -7.59%.

`COc1ccc(-c2cc3nc(C4CCN(C(=O)OC(C)(C)C)CC4)c(C(=O)Nc4cc(Cl)cc(Cl)c4)cn3n2)cc1`: the “activity change, positive = activation” value was inactive: -19.6%. Then `CCOc1ccccc1N(C)C(=O)c1nn(-c2ccc(C)cc2)c(=O)c2c1c1ccccc1n2C`, with inactive: 1.83%; and `COc1cc(C=O)ccc1O`, with inactive: -0.705%. For `COc1ccc(OC)c(NC(=O)c2csnn2)c1`, the “activity change, positive = activation” value is inactive: 2.37%. Then `CCOc1ccccc1-c1nnc(SCc2ccc(Cl)cc2)o1`, with inactive: -9.61%.

Regarding `COCCCNC(=O)c1cc(-c2cccnc2)nc2ccccc12`, the “activity change, positive = activation” value was inactive: -9.45%. Then `COc1ccc(-n2c(SCC(=O)N3CCC(C)CC3)nc3c([nH]c4ccccc43)c2=O)cc1`, with inactive: -11.6%; and `CC1=C(C(=O)Nc2ccc(C)cc2C)C(c2sccc2C)n2ncnc2N1` (stereo unspecified), with inactive: -18.5%.

Turning to `COc1ccc2cccc(CCNC(C)=O)c2c1`, the “activity change, positive = activation” value is inactive: 1.36%.

Consider `CCOc1cccc(C2c3c(oc4ccccc4c3=O)C(=O)N2c2nc(C)c(C(=O)OC)s2)c1` (stereo unspecified), for which the “activity change, positive = activation” value is inactive: -11.2%. On to `Cc1ccc2occ(CC(=O)Nc3nnc(C(C)C)s3)c2c1`, for which the “activity change, positive = activation” value was inactive: -16.4%. Then `O=C(Nc1nnc(S(=O)(=O)N2CCCc3ccccc32)s1)c1ccccc1Br`, with inactive: -20.1%; and `CCCN(CCC)C(=O)Cn1c(=O)n(Cc2ccc(C(=O)NCCc3ccc(OC)c(OC)c3)cc2)c(=O)c2ccccc21`, with inactive: -16.3%. With `CCCN(C(=O)c1cc2c(Cl)nc3ccccc3c2s1)c1cccc(C)c1`, the “activity change, positive = activation” value was inactive: -21.7%. As for `COCCNC(=O)c1ccc(Cn2c(SCC(=O)NC(C)C)nc3ccccc3c2=O)cc1`, the “activity change, positive = activation” value is inactive: -17.2%. As to `CCOc1cc(CNc2ccc(O)cc2)cc(Br)c1OCc1ccccc1`, the “activity change, positive = activation” value is inactive: -43.4%. As for `COc1ccc(CNC(=O)CCCn2c(SCC(N)=O)nc3cc4c(cc3c2=O)OCO4)cc1`, the “activity change, positive = activation” value was inactive: -18.4%.

On to `Cc1cc(Nc2cccc(Cl)c2C)n2nc(Cc3ccccc3)nc2n1`, for which the “activity change, positive = activation” value was inactive: -25.5%.

Regarding `CCN(CC)C(=O)CSc1nc2cc3c(cc2c(=O)n1Cc1ccc(C(=O)NCCc2ccc(OC)c(OC)c2)cc1)OCO3`, the “activity change, positive = activation” value is inactive: -10.2%. In the case of `CCOc1ccccc1NC(=O)Cn1c(=O)n(Cc2ccccc2)c(=O)c2c(C)c(C(=O)N(C)C)sc21`, the “activity change, positive = activation” value is inactive: -9.12%. Then `COc1cc(Cl)c(C)cc1NC(=O)c1cn(CC(C)C)c(=O)c2cc(OC)c(OC)cc12`, with inactive: -3.58%; and `CC(C)OCCCNC(=O)CCCn1c(SCC(=O)c2ccc(Br)cc2)nc2c(sc3ccccc32)c1=O`, with inactive: -1.71%; and `COc1ccc(CNC(=O)c2cnn3c(C)c(Cc4ccc(F)cc4)c(C)nc23)cc1`, with inactive: 0.66%. The same measure for `CC(NC(=O)c1ccccc1)c1nc2ccccc2n1Cc1ccc(Cl)cc1` (stereo unspecified): inactive: -10.6%; for `Cc1cc(C)c(NC(=O)Cn2c(=O)n(CCCCC(=O)NCc3ccccc3Cl)c(=O)c3ccccc32)c(C)c1`: inactive: -9.66%; for `COc1cc(CN(CC2CCCO2)C(=O)c2ccccc2F)cc(OC)c1OC` (stereo unspecified): inactive: -4.26%. Regarding `Cc1ccc(-n2ncc(C(=O)Nc3ccc(C)c(F)c3)c2C2CCN(C(=O)OC(C)(C)C)CC2)cc1C`, the “activity change, positive = activation” value was inactive: -10.1%. The same measure for `CCOc1cc(C2c3c(oc4ccccc4c3=O)C(=O)N2Cc2ccc3c(c2)OCO3)ccc1O` (stereo unspecified): inactive: -2.13%. With `Cc1ccc(CNC(=O)CCCCn2c(=O)c3ccccc3n(Cc3ccc(Cl)cc3)c2=O)cc1`, the “activity change, positive = activation” value was inactive: -10.3%. The same measure for `Cc1nc2sc(C(=O)NCc3ccc(Cl)cc3)c(NC(=O)c3ccccc3)c2c(C)c1C`: inactive: -44%. The same measure for `CCC(C(=O)OCc1cc(=O)n2nc(CCOC)sc2n1)c1ccccc1` (stereo unspecified): inactive: -16.5%.

Take `Cc1ccccc1NC(=O)c1nc(-c2ccncc2)no1`: the “activity change, positive = activation” value was inactive: 4.72%. Then `COc1cccc(N2CCN(c3nc4ccc(C(=O)c5ccccc5)cc4n4c(C)nnc34)CC2)c1`, with inactive: -4.77%; and `Cc1ccc(NC(=O)Cn2c(CCC(=O)O)ccc2-c2cccs2)cc1`, with inactive: -30.5%; and `Cc1ccc(-c2cn3c(n2)sc2cc(C(=O)N4CCCCC4)ccc23)cc1`, with inactive: -15.4%. For `Cc1cc(C)c2c(=O)cc(C(=O)Nc3ccc(S(=O)(=O)Nc4nc(C)cc(C)n4)cc3)oc2c1`, the “activity change, positive = activation” value is inactive: -5.44%. The same measure for `CN(C)CC(=O)N1CCC(c2ccc(NC(=O)c3ncc(C#N)[nH]3)c(C3=CCCCC3)c2)CC1`: inactive: -19.8%; for `COC(=O)C(C)Sc1nc2c([nH]c3ccccc32)c(=O)n1-c1ccc(OC)cc1` (stereo unspecified): inactive: -18.2%; for `O=C(Nc1ccc2nc(SCC(=O)N3CCCC3)sc2c1)c1ccc(F)cc1`: inactive: -18%. The same measure for `N#Cc1ccc(-c2cccs2)nc1SCc1ccc(Cl)cc1Cl`: inactive: 19.1%; for `CCc1ccccc1NC(=O)CSc1nnc(-c2nonc2NC(C)=O)n1C`: inactive: -4.49%.

On to `Cc1ccnc(NC(c2ccccc2F)c2ccc3cccnc3c2O)c1` (stereo unspecified), for which the “activity change, positive = activation” value is inactive: -48.7%. Then `Cc1ccc(Cl)cc1Nc1nc2ccccc2n2c(C)nnc12`, with inactive: -4.48%; and `CCCOc1ccccc1Cn1c(=O)sc2ccccc21`, with inactive: -13.7%; and `CN(CCOc1ccc(NS(C)(=O)=O)cc1)CCc1ccc(NS(C)(=O)=O)cc1`, with “inactive”. The same measure for `Cc1cc(NS(=O)(=O)c2ccc(NC(=O)COc3ccc(Br)cc3C)cc2)no1`: inactive: -24%. As to `CCCCc1nn2c(=O)cc(COC(=O)c3ccccc3NC(=O)C(C)(C)C)nc2s1`, the “activity change, positive = activation” value is inactive: -0.839%. For `Cc1[nH]c(=O)[nH]c(=O)c1C1N2CC3(C(C)C)CN1CC(C(C)C)(C2)C3=O` (stereo unspecified), the “activity change, positive = activation” value is inactive: 11.2%.

As to `CCOC(=O)c1ccc(NC(=O)CN2C(=O)c3cccnc3Oc3ccc(Cl)cc32)cc1`, the “activity change, positive = activation” value is inactive: -17.5%. The same measure for `Cc1ccc(N2CCn3c2nc2c3c(=O)n(CCc3ccccc3)c(=O)n2C)cc1C`: inactive: -2.55%; for `Cc1ccc(Cl)cc1NC(=O)Cn1nc2c(cc1=O)CC(C)CC2` (stereo unspecified): inactive: -5.84%; for `Cc1ccc(OCCSc2nc3ccccc3n2CC(=O)N2CCOCC2)c(C)c1`: inactive: -23.8%. Then `CCOc1ccc(NC(=O)CN2C(=O)COc3ccc(S(=O)(=O)Nc4ccccc4)cc32)cc1`, with inactive: -14.8%. Turning to `COc1ccc(C(=O)Nc2ccc3nc4n(c(=O)c3c2)CCCCC4)cc1OC`, the “activity change, positive = activation” value is inactive: -2.02%. For `CCC(=O)N1CCc2cc(Br)cc(S(=O)(=O)N3CCC(C(=O)NC(C)(C)C)CC3)c21`, the “activity change, positive = activation” value was inactive: -0.765%.

Regarding `O=C(NNc1ncnc2c1cnn2-c1ccccc1)c1cccc(Cl)c1`, the “activity change, positive = activation” value was inactive: -1.91%.

Values taken from PubChem BioAssay AID1508624 (National Center for Advancing Translational Sciences (NCATS), 2021).
